Assay results reported in the supplement of paper PMC8728848.
The list shows a part of the results.

Key:
Experiment in all cases: glycan array binding signal (z-score within array); higher = stronger binding
Conditions in all cases: glycan notation: IUPAC condensed, linker removed
[1] = target: Neu5Ac(a2-6)Gal(b1-4)GlcNAc(b1-2)Man(a1-3)[Neu5Ac(a2-6)Gal(b1-4)GlcNAc(b1-2)Man(a1-6)]Man(b1-4)GlcNAc(b1-4)GlcNAc
Summary of the method: (§1)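 The Consortium for Functional Glycomics database supplied 3228 glycan arrays, of which those lacking an available protein sequence were dropped. The binding signal, a within-array Z-score, was averaged across arrays of the same protein sequence and across linkers. Negative scores can be read as non-binding.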

[2] = target: Neu5Ac(a2-6)Gal(b1-4)GlcNAc(b1-2)Man(a1-6)Man(b1-4)GlcNAc(b1-4)GlcNAc
Summary of the method: as §1

[3] = target: Neu5Ac(a2-6)Gal(b1-4)GlcNAc(b1-2)Man(a1-6)[Gal(b1-4)GlcNAc(b1-2)Man(a1-3)]Man(b1-4)GlcNAc(b1-4)GlcNAc
Summary of the method: as §1

[4] = target: Neu5Ac(a2-6)Gal(b1-4)GlcNAc(b1-2)Man(a1-6)[GlcNAc(b1-2)Man(a1-3)]Man(b1-4)GlcNAc(b1-4)GlcNAc
Summary of the method: as §1

[5] = target: Neu5Ac(a2-6)Gal(b1-4)GlcNAc(b1-2)Man(a1-6)[Man(a1-3)]Man(b1-4)GlcNAc(b1-4)GlcNAc
Summary of the method: as §1

[6] = target: Neu5Ac(a2-6)Gal(b1-4)GlcNAc(b1-3)Gal(b1-3)GlcNAc
Summary of the method: as §1

[7] = target: Neu5Ac(a2-6)Gal(b1-4)GlcNAc(b1-3)Gal(b1-4)GlcNAc
Summary of the method: as §1

[8] = target: Neu5Ac(a2-6)Gal(b1-4)GlcNAc(b1-3)Gal(b1-4)GlcNAc(b1-3)Gal(b1-4)GlcNAc
Summary of the method: as §1

[9] = target: Neu5Ac(a2-6)Gal(b1-4)GlcNAc(b1-3)Gal(b1-4)[Fuc(a1-3)]GlcNAc(b1-3)Gal(b1-4)[Fuc(a1-3)]GlcNAc
Summary of the method: as §1

[10] = target: Neu5Ac(a2-6)Gal(b1-4)GlcNAc(b1-3)GalNAc
Summary of the method: as §1

[11] = target: Neu5Ac(a2-6)Gal(b1-4)GlcNAc6S
Summary of the method: as §1

Neu5Ac(a2-6)GalNAc = target: Neu5Ac(a2-6)GalNAc
Summary of the method: as §1

[12] = target: Neu5Ac(a2-6)GalNAc(b1-4)GlcNAc
Summary of the method: as §1

[13] = target: Neu5Ac(a2-6)GlcNAc(b1-4)GlcNAc
Summary of the method: as §1

[14] = target: Neu5Ac(a2-6)GlcNAc(b1-4)GlcNAc(b1-4)GlcNAc
Summary of the method: as §1

Neu5Ac(a2-8)Neu5Ac = target: Neu5Ac(a2-8)Neu5Ac
Summary of the method: as §1

[15] = target: Neu5Ac(a2-8)Neu5Ac(a2-3)Gal(b1-4)Glc
Summary of the method: as §1

[16] = target: Neu5Ac(a2-8)Neu5Ac(a2-3)[GalNAc(b1-4)]Gal(b1-4)Glc
Summary of the method: as §1

[17] = target: Neu5Ac(a2-8)Neu5Ac(a2-8)Neu5Ac
Summary of the method: as §1

[18] = target: Neu5Ac(a2-8)Neu5Ac(a2-8)Neu5Ac(a2-3)Gal(b1-4)Glc
Summary of the method: as §1

[19] = target: Neu5Ac(a2-8)Neu5Ac(a2-8)Neu5Ac(a2-3)[GalNAc(b1-4)]Gal(b1-4)Glc
Summary of the method: as §1

[20] = target: Neu5Ac(a2-8)Neu5Ac(a2-8)Neu5Ac(a2-8)Neu5Ac(a2-3)[GalNAc(b1-4)]Gal(b1-4)Glc
Summary of the method: as §1

[21] = target: Neu5Ac(b2-6)Gal(b1-4)GlcNAc
Summary of the method: as §1

Neu5Ac(b2-6)GalNAc = target: Neu5Ac(b2-6)GalNAc
Summary of the method: as §1

[22] = target: Neu5Ac9Ac(a2-3)Gal(b1-3)GlcNAc
Summary of the method: as §1

[23] = target: Neu5Ac9Ac(a2-3)Gal(b1-4)GlcNAc
Summary of the method: as §1

[24] = target: Neu5Ac9Ac(a2-6)Gal(b1-4)GlcNAc
Summary of the method: as §1

[25] = target: Neu5Gc(a2-3)Gal(b1-3)GlcNAc
Summary of the method: as §1

[26] = target: Neu5Gc(a2-3)Gal(b1-3)[Fuc(a1-4)]GlcNAc
Summary of the method: as §1

Neu5Gc(a2-3)Gal(b1-4)Glc = target: Neu5Gc(a2-3)Gal(b1-4)Glc
Summary of the method: as §1

[27] = target: Neu5Gc(a2-3)Gal(b1-4)GlcNAc
Summary of the method: as §1

[28] = target: Neu5Gc(a2-3)Gal(b1-4)[Fuc(a1-3)]GlcNAc
Summary of the method: as §1

[29] = target: Neu5Gc(a2-6)Gal(b1-4)GlcNAc
Summary of the method: as §1

Neu5Gc(a2-6)GalNAc = target: Neu5Gc(a2-6)GalNAc
Summary of the method: as §1

[30] = target: Neu5Gc(b2-6)Gal(b1-4)GlcNAc
Summary of the method: as §1

B1: Ecp6 (Cladosporium fulvum), B3VBK9 (protein)
chain: MQSMILFAAALMGAAVNGFVLPRTDDPDCETKATDCGSTSNIKYTVVKGDTLTSIAKKFKSGICNIVSVNKLANPNLIELGATLIIPENCSNPDNKSCVSTPAEPTETCVPGLPGSYTIVSGDTLTNISQDFNITLDSLIAANTQIENPDAIDVGQIITVPVCPSSQCEAVGTYNIVAGDLFVDLAATYHTTIGQIKALNNNVNPSKLKVGQQIILPQDCKNVTTAVA
- glycan array binding signal (z-score) [1]: -0.085
- glycan array binding signal (z-score) [2]: -0.093
- glycan array binding signal (z-score) [3]: -0.121
- glycan array binding signal (z-score) [4]: -0.103
- glycan array binding signal (z-score) [5]: -0.101
- glycan array binding signal (z-score) [6]: -0.092
- glycan array binding signal (z-score) [7]: -0.07
- glycan array binding signal (z-score) [8]: -0.07
- glycan array binding signal (z-score) [9]: -0.087
- glycan array binding signal (z-score) [10]: -0.096
- glycan array binding signal (z-score) [11]: -0.091
- glycan array binding signal (z-score) (Neu5Ac(a2-6)GalNAc): -0.105
- glycan array binding signal (z-score) [12]: -0.063
- glycan array binding signal (z-score) [13]: -0.083
- glycan array binding signal (z-score) [14]: -0.04
- glycan array binding signal (z-score) (Neu5Ac(a2-8)Neu5Ac): -0.092
- glycan array binding signal (z-score) [15]: -0.099
- glycan array binding signal (z-score) [16]: -0.1
- glycan array binding signal (z-score) [17]: -0.1
- glycan array binding signal (z-score) [18]: -0.105
- glycan array binding signal (z-score) [19]: -0.099
- glycan array binding signal (z-score) [20]: -0.082
- glycan array binding signal (z-score) [21]: -0.088
- glycan array binding signal (z-score) (Neu5Ac(b2-6)GalNAc): -0.116
- glycan array binding signal (z-score) [22]: -0.075
- glycan array binding signal (z-score) [23]: -0.097
- glycan array binding signal (z-score) [24]: -0.084
- glycan array binding signal (z-score) [25]: -0.102
- glycan array binding signal (z-score) [26]: -0.091
- glycan array binding signal (z-score) (Neu5Gc(a2-3)Gal(b1-4)Glc): -0.066
- glycan array binding signal (z-score) [27]: -0.116
- glycan array binding signal (z-score) [28]: -0.081
- glycan array binding signal (z-score) [29]: -0.079
- glycan array binding signal (z-score) (Neu5Gc(a2-6)GalNAc): -0.11
- glycan array binding signal (z-score) [30]: -0.088
